According to the supplement of paper PMC4604168 (melanoma cell lines):
This is one part of the list. Single values are uncertain, as repeats are few or missing.

Key:
Assay in all cases: cell count relative to DMSO control; melanoma cells; higher = more viable cells
Settings in all cases: library dose: standard library concentration; 72 h
[1] = tested on: G361
[2] = tested on: IPC-298
[3] = tested on: IST-MEL1
[4] = tested on: LB2518-MEL
[5] = tested on: LOXIMVI
[6] = tested on: MEL-HO
[7] = tested on: MZ2-MEL
[8] = tested on: MeWo
[9] = tested on: RPMI7951
[10] = tested on: RVH-421
[11] = tested on: SkMel28
[12] = tested on: SkMel2
[13] = tested on: SkMel30
[14] = tested on: SkMel5
[15] = tested on: UACC257
[16] = tested on: UACC62
[17] = tested on: WM115
[18] = tested on: WM1716
[19] = tested on: WM1745
[20] = tested on: WM3526
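Also: cells treated in 1,536-well plates, then fixed and DAPI-stained, with nuclei counted from automated high-throughput microscope images.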

| SMILES | cell count [1] [%] | cell count [2] [%] | cell count [3] [%] | cell count [4] [%] | cell count [5] [%] | cell count [6] [%] | cell count [7] [%] | cell count [8] [%] | cell count [9] [%] | cell count [10] [%] | cell count [11] [%] | cell count [12] [%] | cell count [13] [%] | cell count [14] [%] | cell count [15] [%] | cell count [16] [%] | cell count [17] [%] | cell count [18] [%] | cell count [19] [%] | cell count [20] [%] |
| --- | --- | --- | --- | --- | --- | --- | --- | --- | --- | --- | --- | --- | --- | --- | --- | --- | --- | --- | --- | --- |
| Cn1cc(C2=C(c3cn(C4CCN(Cc5ccccn5)CC4)c4ccccc34)C(=O)NC2=O)c2ccccc21 [Enzastaurin] + CN(C)S(=O)(=O)c1ccc2c(c1)/C(=C/c1cc3c([nH]1)CCCC3)C(=O)N2 [SU6656] (first compound 4 µM, partner dose 2 µM) | 72.1 | 78.5 | 56.7 | 74.5 | 109 | 75.8 | 96 | 82.3 | 53.1 | 53.1 | 60.8 | 81.5 | 88.3 | 65.3 | 89.7 | 64.3 | 58.7 | 49 | 53.9 | 87 |
| N.N.[Cl][Pt][Cl] [cisplatin] + Nc1ncn([C@H]2C[C@H](O)[C@@H](CO)O2)c(=O)n1 [decitabine] (first compound 8 µM, partner dose 0.5 µM) | 64.8 | 64.2 | 76.9 | 66.3 | 79 | 73.3 | 71.3 | 60.6 | 84.3 | 92.7 | 59.3 | 84.4 | 88.6 | 72.6 | 78.3 | 52.8 | 65 | 63.1 | 88.6 | 69.2 |
| Cn1cc(C2=C(c3cn(C4CCN(Cc5ccccn5)CC4)c4ccccc34)C(=O)NC2=O)c2ccccc21 [Enzastaurin] + Clc1ccc(Nc2nnc(Cc3ccncc3)c3ccccc23)cc1 [vatalanib] (first compound 4 µM, partner dose 10 µM) | 49.7 | 73.3 | 41.2 | 58.3 | 38.6 | 64.4 | 79.3 | 78 | 43.5 | 37.6 | 62 | 60.2 | 72.8 | 55.6 | 60.2 | 52.6 | 97.2 | 66.5 | 69.6 | 86.4 |
| C[C@]12O[C@H](C[C@]1(O)CO)n1c3ccccc3c3c4c(c5c6ccccc6n2c5c31)CNC4=O [Lestaurtinib] + Nc1nc(F)nc2c1ncn2[C@@H]1O[C@H](CO)[C@@H](O)[C@@H]1O [fludarabine] (first compound 0.02 µM, partner dose 1 µM) | 99.3 | 65.2 | 85.7 | 68.4 | 73.8 | 67.7 | 102 | 91.7 | 60.3 | 63.9 | 4.74 | 2.21 | 24.4 | 51.8 | 36.7 | 49.4 | 86.4 | 114 | 68.7 | 34.5 |
| C[As](C)SC[C@H](NC(=O)CC[C@H](N)C(=O)O)C(=O)NCC(=O)O [Darinaparsin] + O=C(O)C(=O)Nc1sc2c(c1C(=O)O)CCNC2 [TCS401] (first compound 2 µM, partner dose 8.33333 µM) | 79.8 | 90.8 | 87.8 | 76.5 | 98.6 | 91.7 | 99.5 | 73.7 | 74.5 | 100 | 66.1 | 88.5 | 95.1 | 54.2 | 74.4 | 105 | 71.8 | 75.1 | 72.9 | 63.3 |
| C[C@]12O[C@H](C[C@]1(O)CO)n1c3ccccc3c3c4c(c5c6ccccc6n2c5c31)CNC4=O [Lestaurtinib] + CN1CCN(c2ccc3nc(-c4c(N)c5c(F)cccc5[nH]c4=O)[nH]c3c2)CC1 [Dovitinib] (first compound 0.02 µM, partner dose 0.5 µM) | 46.8 | 53.7 | 73.2 | 36.1 | 92.5 | 55.4 | 37.6 | 37.8 | 69.8 | 54.8 | 45 | 57.3 | 55.2 | 42.9 | 78.1 | 53.6 | 38.6 | 78.4 | 64.4 | 49.1 |
| C[C@]12O[C@H](C[C@]1(O)CO)n1c3ccccc3c3c4c(c5c6ccccc6n2c5c31)CNC4=O [Lestaurtinib] + N.N.[Cl][Pt][Cl] [cisplatin] (first compound 0.02 µM, partner dose 8 µM) | 69.3 | 58 | 79.8 | 47.4 | 81.8 | 68 | 92 | 56.1 | 85.7 | 79 | 47.9 | 79.1 | 60.2 | 55.4 | 77.4 | 68.9 | 83 | 84.6 | 72.1 | 58 |
| Cn1cc(C2=C(c3cn(C4CCN(Cc5ccccn5)CC4)c4ccccc34)C(=O)NC2=O)c2ccccc21 [Enzastaurin] + Cc1nc(Nc2ncc(C(=O)Nc3c(C)cccc3Cl)s2)cc(N2CCN(CCO)CC2)n1 [dasatanib] (first compound 4 µM, partner dose 0.02 µM) | 34 | 80.7 | 33.8 | 59.8 | 29 | 78.1 | 64.3 | 88.9 | 15.6 | 103 | 59.5 | 96.7 | 104 | 61 | 75.2 | 62.6 | 65.1 | 51.6 | 12.7 | 78.4 |
